Results as given in publication PMC11273436 (Antibiotics, 2024).

Assays:
H1N1 virus [1] = assay type: in vivo, C57BL/6J mice
H1N1 virus [2] = test: microbe, parasite or virus in culture; conditions: Influenza A virus, H1N1, A549, read-out: IC50 against H1N1 infection
H1N1 virus [3] = conditions: read-out: IC50 against H1N1 infection; A549 cells, mean ± SEM, 3 independent experiments
[4] = C57BL/6J mice, i.p. daily for 5 days, Pc-5 10 mg/kg, RV 100 mg/kg, n = 7

Compound	effect on body weight of H1N1-infected mice (H1N1 virus [1]; mouse, in vivo)	lung inflammatory score (H&E) compared with the H1N1 group (H1N1 virus [1]; mouse, in vivo)	IC50 (H1N1 virus [2]) [µM]	infectious viral titers in pulmonary tissue (H1N1 virus [1]; C57BL/6J mice, day 5 postinfection, i.p. daily, Pc-5 10 mg/kg, RV 100 mg/kg, n = 7)	effect on body weight of H1N1-infected mice (H1N1 virus [1]; [4])	lung inflammatory score (H&E) compared with the H1N1 group (H1N1 virus [1]; [4])	IC50 (H1N1 virus [3]) [µM]
NC(=O)c1ncn([C@@H]2O[C@H](CO)[C@@H](O)[C@H]2O)n1 [RV, ribavirin, reference compound]	ameliorated the H1N1-induced impact on body growth	lower	101 ± 29.7				
VCVKKVRKLYKKIYKCR-NH2 (disulfide) [Pc-5]				significant reduction in the viral burden	ameliorated the H1N1-induced impact on body growth	lower	2.47 ± 1.95

Where two headings read alike, the source gives them in different places.
